# Measured values from PMC4336329 (PLoS ONE, 2015).
# About 14,000 (4.5%) of roughly 310,000 compounds showed an effect of 50% or more. The effect is printed as a negative number. The list shows a part of the results.
# Target: human ether-à-go-go-related gene (hERG) potassium channel (human, UniProt Q12809)
# Experiment: primary screen, population patch clamp on CHO cells stably expressing hERG
# 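Note: peak tail current of the secondary pulse compared with the same well before compound.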
# human ether-à-go-go-related gene (hERG) potassium channel, sequence (Q12809 whole entry, looked up): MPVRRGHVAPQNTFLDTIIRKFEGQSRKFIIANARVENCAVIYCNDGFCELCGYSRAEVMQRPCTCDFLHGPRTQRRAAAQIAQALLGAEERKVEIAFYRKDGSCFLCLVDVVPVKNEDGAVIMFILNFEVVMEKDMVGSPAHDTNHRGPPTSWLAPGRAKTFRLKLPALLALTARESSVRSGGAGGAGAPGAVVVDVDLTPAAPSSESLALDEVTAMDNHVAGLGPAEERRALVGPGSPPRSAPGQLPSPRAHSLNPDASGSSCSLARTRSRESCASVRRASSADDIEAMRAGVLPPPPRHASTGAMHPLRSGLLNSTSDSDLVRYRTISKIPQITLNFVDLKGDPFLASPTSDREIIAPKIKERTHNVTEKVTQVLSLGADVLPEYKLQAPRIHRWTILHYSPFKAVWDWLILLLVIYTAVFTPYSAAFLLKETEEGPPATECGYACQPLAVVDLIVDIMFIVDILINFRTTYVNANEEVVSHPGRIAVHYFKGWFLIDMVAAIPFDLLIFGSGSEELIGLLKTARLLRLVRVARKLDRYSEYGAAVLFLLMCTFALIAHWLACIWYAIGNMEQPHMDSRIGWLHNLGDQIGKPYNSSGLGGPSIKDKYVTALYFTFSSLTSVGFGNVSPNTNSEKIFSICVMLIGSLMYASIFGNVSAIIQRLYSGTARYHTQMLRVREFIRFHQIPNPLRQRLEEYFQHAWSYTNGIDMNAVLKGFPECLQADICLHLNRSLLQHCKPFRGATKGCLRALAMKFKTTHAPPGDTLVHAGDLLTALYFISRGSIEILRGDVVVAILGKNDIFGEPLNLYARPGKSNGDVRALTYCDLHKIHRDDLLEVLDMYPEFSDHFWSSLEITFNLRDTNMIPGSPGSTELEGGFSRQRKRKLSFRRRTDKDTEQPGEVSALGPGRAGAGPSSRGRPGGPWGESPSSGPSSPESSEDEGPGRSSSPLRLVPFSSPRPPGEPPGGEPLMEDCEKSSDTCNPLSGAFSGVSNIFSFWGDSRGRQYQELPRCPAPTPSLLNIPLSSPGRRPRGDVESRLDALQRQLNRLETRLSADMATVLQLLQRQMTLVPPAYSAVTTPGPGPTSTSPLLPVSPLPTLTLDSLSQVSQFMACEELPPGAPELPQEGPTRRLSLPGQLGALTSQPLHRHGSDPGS
row,SMILES,"hERG current change (%, negative = inhibition) at 10uM [%]"
1,COC(=O)CNC(=O)COC(=O)c1cc(Cl)cc(Cl)c1N,-9.3
2,CCn1c(CNC(=O)c2ccco2)nnc1SCC(=O)Nc1cccc(F)c1,-10.8
3,CC(=O)c1c(C)nn(C(C)CC(=O)O)c1C (stereo not drawn),-2.53
4,COc1ccc(C2C=C(C34CC5CC(CC(C5)C3)C4)NC(=S)N2)cc1 (stereo not drawn),3.44
5,O=C(OCC(=O)N1CCCCCC1)c1n[nH]c(=O)c2ccccc12,-4.37
6,CC(=O)NNc1ncnc2c1cnn2-c1ccccc1,-0.103
7,COCCNC(=O)CSc1cc(-c2ccccc2)c2ccc(OC)cc2n1,-42.6
8,CCN1C(=O)/C(=C/c2ccc3c(c2)CCN3CCCCl)C(=O)NC1=S,-3.76
9,COc1ccc(-c2noc(CN(C(=O)c3ccc4c(c3)OCO4)C(C)C)n2)cc1,-6.46
10,C=CCN1C(=O)/C(=C\c2ccc(C)cc2)N=C1SCC(=O)NCCC,-3.27
11,O=C1CC2(CCN(S(=O)(=O)c3ccccc3F)CC2)Oc2ccccc21,-84.6
12,CC12CN3CC(C)(CN(C1)C3c1ccc3ccccc3c1O)C2=O (stereo not drawn),7.44
13,CCN(CC(=O)Nc1cc(Cl)ccc1C)C(=O)Cc1ccsc1,-8.12
14,COc1ccccc1NC(=O)NNC(=O)COc1ccc2ccccc2c1,7.24
15,Clc1ccc(-n2ncc3c(N4CCCCCC4)ncnc32)cc1,16.5
16,CCOC(=O)c1ccc(NC(=O)N2CCN(c3cccc(OC)c3)CC2)cc1,-16.5
17,COc1ccccc1C(=O)Oc1ccc2ccc(=O)oc2c1,10.5
18,Cc1ccc(-c2cc(C(=O)N/N=C/c3ccccc3)n[nH]2)o1,-12.6
19,CCCc1nc2ccccc2c(=O)n1CCc1ccccc1,-18.5
20,O=C(c1ccc(=O)[nH]c1)N1CCN(S(=O)(=O)c2ccc3ccccc3c2)CC1,-7.91
21,CCOC(=O)c1cccnc1SC(CC)C(=O)NCc1ccco1 (stereo not drawn),-31.5
22,Clc1cccc(C2Nc3cccc4cccc(c34)N2)c1,8.11
23,CCOC(=O)NC1(C(F)(F)F)NC(=O)N(C2CCCCC2)C1=O (stereo not drawn),-3.7

row,SMILES,"hERG current change (%, negative = inhibition) at 10uM [%]"
1,CCc1nc(OCCN(C)C)c2oc3ccccc3c2n1,-4.1
2,CCN1C(=O)CC(Sc2ccccc2C(=O)O)C1=O (stereo not drawn),-5.17
3,O=C(c1ccc(C(F)(F)F)cc1)C1CCCN(C(=O)CN2CCCC2=O)C1 (stereo not drawn),0.525
4,COc1ccc(C2(C(=O)N3CCC(n4nc(-c5ccccc5)oc4=O)CC3)CC2)cc1,20.2
5,Cl.Clc1ccc(CN2C3=NCCCN3c3ccccc32)cc1,-75.1
6,COc1ccc(C(=O)N2CCN(CCc3ccccc3)CC2)cc1[N+](=O)[O-],-75.6
7,COc1ccc(OCC(=O)N/N=C/c2ccsc2)cc1,-26.6
8,Br.CCCc1nnc2n1N=C(c1ccc(OC)c(OC)c1)CS2,-17.1
9,O=C(CSc1cc(Cl)ccc1Cl)Nc1ccc(N2CCOCC2)cc1,-58.3
10,Cc1ccc(S(=O)(=O)N(C)C)cc1-n1c(SCC(=O)Nc2ccc(F)c(F)c2F)nc2ccccc2c1=O,8.58
11,NS(=O)(=O)c1ccc(-c2cccc(/C=C3\SC(=O)NC3=O)c2)cc1,7.87
12,Cn1c(NCCCN2CCOCC2)nc2c1c(=O)n(Cc1ccc(Cl)cc1Cl)c(=O)n2C,-45.8
13,CN(C)Cc1ccc(O)c(CCc2ccccc2)n1.Cl,-6.43
14,Cc1ccc(S(=O)c2snnc2C)cc1 (stereo not drawn),28.1
15,CCN(C(=O)Cc1c(C(=O)O)n(C)c2ccccc12)c1cc(OC)ccc1OC,11.9
16,CCCCOc1ccccc1-c1cc(C(=O)O)[nH]n1,12.8
17,COc1ccc(-c2nnc(SCc3cc(C)cc(C)c3)o2)cc1,6.31
18,O=C(Nc1ccc(SC(F)F)cc1)C12CCC(CC1)C2,3.03
19,Nc1ccc2nc(SCC(=O)c3ccccc3)sc2c1,9.11
20,CCCCOC(=O)c1cc(=O)[nH]c2ccc(C)cc12,5.6
21,CCN1CCN(C(CNS(=O)(=O)c2ccc(OC)c(C)c2)c2cccnc2)CC1 (stereo not drawn),-70.2
22,COc1cccc(N(C(=O)CNC(=O)c2ccco2)C(C(=O)NC2CCCC2)c2ccco2)c1 (stereo not drawn),-8.79
